{"source": "paper PMC12136788", "binders": {"B1": {"name": "chrX:153994619:153994620:+_ENSG00000130826_ENST00000369550|hu_hu|FALSE|FALSE (ssRNA)", "RNA": "GGGAGUUCUACAGUCCGACGAUCCCCCACAUACUCUUUGCCUGCACUCUGUUGUGACUUCACCAAGCGAGUGGCUCGUUCUAUGCACACGAUUAAACAACCAGUCACCUUGGGAUCCAGCGUACCACUGUGCCCUGUCUUCUCCAACAGAGGAUUGAGCAUCA"}, "B2": {"name": "168347556_168348975_3564_CDS_ENSG00000130396_ENST00000400822|human|control|control (ssRNA)", "RNA": "GGGAGUUCUACAGUCCGACGAUCCUCCUCAGUGCAGAGGUUUCCAGUAGAGACAGAUGUUAUCUUCGCUGUUGUUCCAGAGGCAUAUGCACUUUUCCCUCCAGGACUAGGAGGCUGAUUUGCUACGUUGGGGCUGGAACGGUGCAACAGAGGAUUGAGCAUCA"}, "B3": {"name": "chr6:55002191:55002192:+_ENSMUSG00000029777_ENSMUST00000003572|mus_hu|FALSE|FALSE (ssRNA)", "RNA": "GGGAGUUCUACAGUCCGACGAUCAUGGUCAGCACGAAAACAUUCUCCAUUUUUUACGUCUUUCACCAUGAAGUCAGCAAAUUUGUCUACAUGGCCAGAGGUCUUUAAAACUGGCUCAGGGGUGAGCAUGGUGCAAUCGAUCUCCAACAGAGGAUUGAGCAUCA"}, "B4": {"name": "chr12:73895003:73895004:+_ENSMUSG00000021096_ENSMUST00000021514|mus_hu|FALSE|FALSE (ssRNA)", "RNA": "GGGAGUUCUACAGUCCGACGAUCUAACUUUGAUAGUGAUUUAAAGCAGUUCAUAAUUAAAUAUGAGCAUUUUGUACAAGGACAAUUACACUUUACAAAAAAACAAAAUCAUACAACAAAAAUUGCUGGAGUCUGAUUUACAACCAACAGAGGAUUGAGCAUCA"}, "B5": {"name": "29314414_29319958_652_CDS_ENSG00000159023_ENST00000356093|human|control|control (ssRNA)", "RNA": "GGGAGUUCUACAGUCCGACGAUCUGUUUCUGCUUUUGAUUGAGGGCUUUCUUCUUUUACUUCUAUUUUGGAGCACUCUUCAAGUCCUUCUCCUUCCUUAAUUUCAAAAUCUGGAUCUUCUCUGAGUUCUUCCUGAGCAGGCUGCAACAGAGGAUUGAGCAUCA"}, "B6": {"name": "79764536_79767469_2262_CDS_ENSG00000148606_ENST00000372371|human|control|control (ssRNA)", "RNA": "GGGAGUUCUACAGUCCGACGAUCGAUGUACUCAUCACAUUUCUUGUAGCCGGCAUUCAGCAACUCAUACUUGGCCUUCAGCAGUCCUUGGCCAGGUGUGACAUCACCGAUCCCAAUUGAGAAACCACGGUUAGACAGGUAGACCAACAGAGGAUUGAGCAUCA"}, "B7": {"name": "chr11:77336104:77336105:-_ENSG00000074201_ENST00000525064|hu_mus|hu_hu_hu_mus_False|8_58 (ssRNA)", "RNA": "GGGAGUUCUACAGUCCGACGAUCCUCACACAUUGCUGUGAACAUCGCCUCCAAUGCUGACUUAUCACUGGGCACAAAUCUAAAUUCAGAAAUGGGUUCAACAUCAUCAUUGUCUUCCUCAUCUUCAUCAUCAGCAAGUUCUUUCAACAGAGGAUUGAGCAUCA"}, "B8": {"name": "88450866_88452941_500_CDS_ENSG00000054983_ENST00000261304|human|control|control (ssRNA)", "RNA": "GGGAGUUCUACAGUCCGACGAUCCCAUGGCAACCCAAUGAGUGUAAUAUUGGGAUUCCUCUUCUUAGCUUCUUUCAUCAACCACCACUCGUAUCCUCGGAAAUAAUUCUCAUCUAGUGCAUAAUGCAUGUGGGAGGGCUCAGUCAACAGAGGAUUGAGCAUCA"}, "B9": {"name": "chr5:173380165:173380166:+_ENSG00000113742_ENST00000334035|hu_hu|motif|central (ssRNA)", "RNA": "GGGAGUUCUACAGUCCGACGAUCCACCCGUUUAUCUAUCUCUCCAUGCUGCAGCUGAACAAAGCGGGCACUGAUAGCAGCGGUGUAACUCUGUUGAUUAGAGAACGCAACUCUCCCAGCUCCUUUUGGGUAUUUUAGCUCAGGCAACAGAGGAUUGAGCAUCA"}, "B10": {"name": "chr15:25616465:25616466:-_ENSG00000114062_ENST00000438097|hu_hu|motif|central (ssRNA)", "RNA": "GGGAGUUCUACAGUCCGACGAUCCGCUUUGCAAAAUAAUGGCAAAGCCAUUUCCAGAUAUUCAGGACUGUGGAGAUUUCGGUUCUCCAUUACGAUAAUGAACAAAUUCAGAUAAUUAGGAUCUCGAGAGUAUACAUUGUGAUACAACAGAGGAUUGAGCAUCA"}, "B11": {"name": "chr10:57943292:57943293:+_ENSMUSG00000003226_ENSMUST00000003310|mus_hu|FALSE|FALSE (ssRNA)", "RNA": "GGGAGUUCUACAGUCCGACGAUCCAAAGACCCAGUGGCUGAACUGUUGCCGAAUGCAAAUGGUUUUGAUUUUUCACUACUAAAAAUGCUUUUAACAGACUCUGAACCAAAUACAAACUUUGGAGGAGAAACCACUGCUUUUGGCAACAGAGGAUUGAGCAUCA"}, "B12": {"name": "chr4:144460044:144460045:+_ENSG00000153147_ENST00000283131|hu_mus|hu_hu_hu_mus_False|1_1 (ssRNA)", "RNA": "GGGAGUUCUACAGUCCGACGAUCACGGUCCAUAGCCUGAAGAUCAACUUGCGGAUUCCAAUCUGAGUCAUAUAAAAUGACUACAUCAGCAGUUGCAAGAUUGAUGCCCAGACCACCAGCACGUGUGCUUAGCAUAAAAACAAACAACAGAGGAUUGAGCAUCA"}, "B13": {"name": "chr4:58499471:58499472:-_ENSMUSG00000038668_ENSMUST00000055018|mus_mus|FALSE|FALSE (ssRNA)", "RNA": "GGGAGUUCUACAGUCCGACGAUCAGCGUAGAGAACCACCAUGACCACAAAGGUCACCAGGUUGAAAAUGGCCCAGAAGACUAAGUAGGAGUCACUGUAGAGGGGUGCCAUGUUGGAACAGUGAUCGAUAUCACAGAUGCAGUUCAACAGAGGAUUGAGCAUCA"}, "B14": {"name": "chr18:58099821:58099822:+_ENSMUSG00000024597_ENSMUST00000115366|mus_mus|motif|central (ssRNA)", "RNA": "GGGAGUUCUACAGUCCGACGAUCAUUUUCUUUUUUUGGCUUGGUGUUGAUAUCUCCAAGGACCAUGAUAUCAGAGAAGUCGGUCCGGAAUUUACUCAAUAAAGUAGCCAUCGCUCUCCGGUCAUGGUCUAUUCUGUUUAUUUUCAACAGAGGAUUGAGCAUCA"}, "B15": {"name": "chr12:39687257:39687258:-_ENSG00000139116_ENST00000551264|hu_hu|FALSE|FALSE (ssRNA)", "RNA": "GGGAGUUCUACAGUCCGACGAUCAAAAUCCAGUCAACAACUUUUAAAAAUUCAUACAGGCACAACACAAGAUAGUCUCUCUAUACAAUCUACCUAUUUACAUAGCUUUUCCCACCACAGAUGAUAAUAGCUCUCAUCAUAGCUCAACAGAGGAUUGAGCAUCA"}, "B16": {"name": "168315348_168315897_2265_CDS_ENSG00000130396_ENST00000400822|human|control|control (ssRNA)", "RNA": "GGGAGUUCUACAGUCCGACGAUCGCAGCGUCGUAGCAAGGACAUGGCUCCUGUGAGCGUGUGCAGCACAUCAUCUAUUUUUGGUCGUUGCAGACUGUUCUCUUCAGGGUCAUCUAGAAAGGCUGGCAUGUAAUUAUUAAGUUCCAACAGAGGAUUGAGCAUCA"}, "B17": {"name": "chrX:140365678:140365679:-_ENSMUSG00000031285_ENSMUST00000033642|mus_mus|FALSE|FALSE (ssRNA)", "RNA": "GGGAGUUCUACAGUCCGACGAUCGUCAGAAGAAACAGCGUACACAAUCCCCUUGAAGUAACGGUCCCCAUUGCGGUAGAAACGUACCUUCUUGGCCUUCUUCUCAUUACUUAAUGCCUGCAAGGUUCUGGUUCUGUAGAAGCUCAACAGAGGAUUGAGCAUCA"}, "B18": {"name": "chr4:17845017:17845018:+_ENSG00000109805_ENST00000514176|hu_mus|hu_hu_hu_mus_False|58_98 (ssRNA)", "RNA": "GGGAGUUCUACAGUCCGACGAUCGCUCUCUUAACUUGAUCUUCAUUUAAGGAACUCUGCAAGGUUAAGUUUACUUUUUCUAGUGCUAGCUGUUUUGGCUCGUCUGGGUAAUCUCAUCUUCAUUUCUGAUGGUGGUUCAUGAUCCAACAGAGGAUUGAGCAUCA"}, "B19": {"name": "chr2:179515052:179515053:+_ENSMUSG00000000305_ENSMUST00000000314|mus_hu|mus_mus_mus_hu_False|1_58 (ssRNA)", "RNA": "GGGAGUUCUACAGUCCGACGAUCGCUGUCCCAUGCAGUCACCGUGAACGCCACCUGCUCGGAGGGGACCUGCAGCUCCCUAGUGGCGAAGACUGUCCCAUCUGCCCCAACUUUGAAGUCCAUGCUGUUGGUCUCAUACUGCAUCAACAGAGGAUUGAGCAUCA"}, "B20": {"name": "chr1:168153195:168153196:+_ENSG00000143155_ENST00000367833|hu_mus|motif|central (ssRNA)", "RNA": "GGGAGUUCUACAGUCCGACGAUCUAGAACGUUGUCUCCAAACAUCAUUUCAGGGAGGGAUGGCAUGUGCAGCUCGUCAGCGGACUUUUCCACAUCCGCAGACUUCAUGAUGUGGGUCUUGGACGCCGUCAGCUUCCAAGGCCCCAACAGAGGAUUGAGCAUCA"}, "B21": {"name": "4744489_4745162_5046_CDS_ENSMUSG00000067889_ENSMUST00000008991|mouse|control|control (ssRNA)", "RNA": "GGGAGUUCUACAGUCCGACGAUCCUCUUUGAGGUCUGCAAUCCGGGGCUCAUGGCCCUGGAUCUCCUUCUGCAGGGUCUGGUUUUUCUUCAUGAGAAGCUGGACACUGGGCAAGUCCUUGCCAUGUUCCAGAGAGCUGGCCAUCAACAGAGGAUUGAGCAUCA"}, "B22": {"name": "chr1:220276048:220276049:+_ENSG00000067704_ENST00000302637|hu_hu|hu_hu_hu_mus_True|1_88 (ssRNA)", "RNA": "GGGAGUUCUACAGUCCGACGAUCGCAAAUUGCCUGGUUGGCGGGAAUCGUCCAAGGCUGGGUGGUCCAAACUAAAACGCUAACAGGGGAUGAGGCAUCUGUAAGAGACUCCAACUUCGGAGGAGGUCUCAGGAGGGGAAAUUUCAACAGAGGAUUGAGCAUCA"}}, "note": "Some of the results follow."}
{"target": "T1, UNK ZnF1-3 (human, UniProt Q9C0B0 31-174)", "T1 sequence": "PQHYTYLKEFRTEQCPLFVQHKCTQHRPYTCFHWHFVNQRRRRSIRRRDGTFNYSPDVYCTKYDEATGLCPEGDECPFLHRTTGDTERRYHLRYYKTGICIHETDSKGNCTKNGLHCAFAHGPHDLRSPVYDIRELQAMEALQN", "assay": "nsRBNS (natural sequence RNA bind-n-seq); RBNS binding buffer (assumed for nsRBNS): 25 mM Tris pH 7.5, 150 mM KCl, 3 mM MgCl2, 0.01% Triton X-100, 500 ug/ml BSA, 20 U/ml SUPERase-In, 4 C; UNK is unkempt and MSI1 is Musashi-1; names of the RNAs are library labels; protein concentration not given here; high values mean tight binding", "units": {"binding signal": "enrichment R"}}
{"binder": "B1", "binding signal": 0.906}
{"binder": "B2", "binding signal": 0.843}
{"binder": "B3", "binding signal": 0.825}
{"binder": "B4", "binding signal": 0.866}
{"binder": "B5", "binding signal": 0.371}
{"binder": "B6", "binding signal": 0.831}
{"binder": "B7", "binding signal": 1.02}
{"binder": "B8", "binding signal": 1.21}
{"binder": "B9", "binding signal": 0.86}
{"binder": "B10", "binding signal": 0.56}
{"binder": "B11", "binding signal": 0.983}
{"binder": "B12", "binding signal": 0.971}
{"binder": "B13", "binding signal": 1.44}
{"binder": "B14", "binding signal": 0.346}
{"binder": "B15", "binding signal": 1.8}
{"binder": "B16", "binding signal": 1.07}
{"binder": "B17", "binding signal": 0.934}
{"binder": "B18", "binding signal": 0.415}
{"binder": "B19", "binding signal": 0.821}
{"binder": "B20", "binding signal": 0.826}
{"binder": "B21", "binding signal": 0.383}
{"binder": "B22", "binding signal": 1.98}
